Reference: article PMC7363125
Where a chain is given by its changes, count along the chain named. These are yes or no findings as the source states them, for the method shown. Binding seen in cells or lysates may run through a third protein. Some results given as binding are weak or reduced against the parent protein; the word gives no strength. Where a sequence is shown, tags or fusion partners need not be part of it.

What was measured:
Assay in all cases: pull-down; 5 ug GST-PLEKHA7 WW bait (E. coli) coupled to GSH-Sepharose beads, washed, incubated 1 h at 4 °C with normalized HEK cell lysate holding PDZD11-HA or CFP-HA; immunoblot with anti-HA; only the target purified
[1] = biological target: T1, GST-PLEKHA7 WW1 + WW2 domain (1-162), mutation within the WW2 domain at position 71 (human) (UniProt Q6IQ23)
T1 sequence: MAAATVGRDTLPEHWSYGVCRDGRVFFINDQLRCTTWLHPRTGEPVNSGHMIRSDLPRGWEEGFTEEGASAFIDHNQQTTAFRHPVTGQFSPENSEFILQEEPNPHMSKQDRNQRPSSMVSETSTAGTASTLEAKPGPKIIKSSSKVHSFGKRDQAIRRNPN

[2] = biological target: T2, GST-PLEKHA7 WW1 + WW2 domain (1-162), mutation within the WW2 domain at position 59 (human) (UniProt Q6IQ23)
T2 sequence: T1 sequence with G59A, A71Y

[3] = biological target: T3, GST-PLEKHA7 WW1 + WW2 domain (1-162) Y17A (human) (UniProt Q6IQ23)
T3 sequence: T1 sequence with Y17A, A71Y

[4] = biological target: T4, GST-PLEKHA7 WW1 + WW2 domain (1-162) R33A + D74A (human) (UniProt Q6IQ23)
T4 sequence: T1 sequence with R33A, A71Y, D74A

[5] = biological target: T5, GST-PLEKHA7 WW1 domain (residues 1-56) T35A (human) (UniProt Q6IQ23)
T5 sequence: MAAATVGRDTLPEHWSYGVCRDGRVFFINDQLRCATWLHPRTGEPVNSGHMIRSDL

[6] = biological target: T6, GST-PLEKHA7 WW1 + WW2 domain (1-162) H75A (human) (UniProt Q6IQ23)
T6 sequence: T1 sequence with A71Y, H75A

[7] = biological target: T7, GST-PLEKHA7 WW1 + WW2 domain (1-162) D30A + H75A (human) (UniProt Q6IQ23)
T7 sequence: T1 sequence with D30A, A71Y, H75A

[8] = biological target: T8, GST-PLEKHA7 WW1 + WW2 domain (1-162), mutation within the WW2 domain at position 60 (human) (UniProt Q6IQ23)
T8 sequence: T1 sequence with W60A, A71Y

[9] = biological target: T9, GST-PLEKHA7 WW1 + WW2 domain (1-162) F27A (human) (UniProt Q6IQ23)
T9 sequence: T1 sequence with F27A, A71Y

B1: PDZD11-HA (human) full-length (protein, UniProt Q5EBL8 1-140)
chain: MDSRIPYDDYPVVFLPAYENPPAWIPPHERVHHPDYNNELTQFLPRTITLKKPPGAQLGFNIRGGKASQLGIFISKVIPDSDAHRAGLQEGDQVLAVNDVDFQDIEHSKAVEILKTAREISMRVRFFPYNYHRQKERTVH
With B1 the binding [1] was “binds”, the binding [2] was “binds” and the binding [3] was “binds”. The binding [4] was “binds”, the binding [5] was “no binding” and the binding [6] was “binds”. The binding [7] was “no binding”, the binding [8] was “binds” and the binding [9] was “binds”.
